Experimental data from the supplement of paper PMC10126150.
Values marked as one replicate rest on one cluster of the flow cell; about a third of the high ones do not repeat.

Test system: ATP
Assay: switch fluorescence ratio, 500 uM ATP over buffer (Cy3 cluster intensity, sum of 5 cycles each) (fold (ratio)); higher = stronger signal-on switching upon ATP binding; sequences stand for … in TCGTCGGCAGCGTCAGATGTGTATAAGAGACAGTTTTTTTTTTTTTTTTTTTTTTTTT…TC
Details: aptamer strand: ATP DNA aptamer (quencher-CACCTGGGGGAGTATTGCGGAGGAAGG + anchor), 100 nM annealed; ATP concentration: 500 uM; one replicate
Summary of the method: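 The fluorescence ratio divides summed target-cycle Cy3 intensity by summed buffer-cycle Cy3 intensity for each cluster and is averaged per switch-domain sequence. Cy3-labelled switching-strand clusters on a modified Illumina MiSeq flow-cell were annealed to 100 nM quencher-labelled ATP aptamer, then imaged in selection buffer and again after 15 min with 500 uM ATP at 22 °C. Five such cycles were run, with NaOH stripping and re-annealing between them, and clusters outside 100-1000 RFU were excluded.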
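Further: ATP exposure 15 min at 22 °C before imaging.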

| Sequence | switch fluorescence ratio |
| --- | --- |
| TTGCATAAGG | 0.988 |
| AGAGTAGGTA | 0.955 |
| TCCTGGTCGC | 0.997 |
| TGATTGAAGT | 0.95 |
| ACAGATCCCT | 0.961 |
| AATGGCGGAG | 1.01 |
| CAATGCAAGG | 1.11 |
| ATCCGGATC | 0.951 |
| AGCGGTGTAG | 1.03 |
| TGAAAGATGG | 1.03 |
| GATTCTTTAG | 0.97 |
| GACTAGAGCG | 0.996 |
| AAGAAACGTG | 0.992 |
| GGTTGTGGTA | 0.968 |
| GCTCCTAGTA | 1.03 |
| TGCGTATGCG | 1.13 |
| TTGTAGGGG | 1.02 |
| AATTACGG | 1.07 |
| GTTCACACCG | 1.03 |
| ACATAATTGT | 1 |
| GGCGTGCCAG | 0.969 |
| ATTGGGCTTT | 0.965 |

| Sequence | switch fluorescence ratio |
| --- | --- |
| TAGCACGTTT | 0.974 |
| GTATGGAAGG | 0.994 |
| AGTAAAGGTT | 0.964 |
| TGATACGCCT | 1.03 |
| AAAATGTCGT | 1.01 |
| GTCGCATTCA | 0.968 |
| CGTGCTGTAT | 1.01 |
| CGGAGTTACT | 1.37 |
| ACTGAAATTG | 1 |
| ATTCATGCGA | 1.01 |
| GTTCTCCCTT | 1.01 |
| GTCAGAAATT | 0.964 |
| GATTTGACGC | 0.993 |
| ACAACTCGGT | 1.03 |
| TTTACCAG | 1.05 |
| TCGAGCTATG | 1.03 |
| AACGGGGTCC | 1.01 |
| GGAAGAGCTG | 1.09 |
| ACCATGAACT | 1.03 |
| AAAATTCCTC | 1.11 |
| GTTTTCACCT | 1.09 |
| AGACGTTGCC | 1.03 |

| Sequence | switch fluorescence ratio |
| --- | --- |
| TTAGAGTAGG | 1.01 |
| CAGGGGTGAA | 1.01 |
| GCCCCCGGAC | 1.09 |
| AGGGGACCCT | 1.01 |
| ATACGCAGTC | 1.77 |
| TTAGCGCGCA | 1.04 |
| TGGGATGAGA | 1.01 |
| AGAGGAGGGC | 1.02 |
| GGTCCGCCCG | 1 |
| TTGCCAACCG | 1.03 |
| GTGTAATTCA | 0.968 |
| TGGGTCACAT | 1.02 |
| CCAGATCAGC | 0.994 |
| TTTAGCCTTC | 1.14 |
| GTCACAGGTG | 5.59 |
| TATAGAACGA | 1.03 |
| ATTGAGGTGC | 1.06 |
| GAGTTTATTC | 0.991 |
| GGGTGTTTAT | 1.06 |
| AGTAATCATA | 0.991 |
| ACCACGTTCG | 1.05 |
| CCCTTTTTAC | 1 |

| Sequence | switch fluorescence ratio |
| --- | --- |
| GATGGCATTG | 0.991 |
| GCGTGAGCTG | 0.963 |
| AGGAAAGAGT | 1.08 |
| TGGGTGT | 1.08 |
| GAAAGATTAA | 0.932 |
| GATGTGTATT | 0.995 |
| TCGTTTTAAG | 0.981 |
| CTGACAAAGT | 1.12 |
| GCCGGTATCA | 0.997 |
| GCTGAATTGC | 0.986 |
| TGCGTATGTT | 0.984 |
| GATGAAAGCG | 1.01 |
| ATCATACGCT | 1.13 |
| TGCGTCGTAG | 1.06 |
| CCAACGCCTA | 2.44 |
| TCTTTCTA | 0.983 |
| GTCTCGAGTT | 1 |
| CGAGTAAATC | 1.14 |
| TACATGTTTT | 0.984 |
